In the supplement of paper PMC4967469:
The IC50 comes from the fitted curve, where viability falls to half of the control; a limit (>, <) means that the fit lies beyond the doses tested. For AUC the same curve is integrated over the 256-fold range of doses and scaled to a fraction; it is 1 without any effect and falls as sensitivity rises. The top dose, if marked as inferred, was derived from the fitted curves, not read from the paper.

Compound: Cc1ccc(-c2c(C(=O)CF)n(CCCO)c3ncnc(N)c23)cc1 [FMK]
Experiment: Viability of human cancer cell lines after 72 h of drug (GDSC screen)
Details: top dose inferred
Protocol: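 Human cancer cell lines in 384-well plates, medium with 10% serum, drug for 72 h over a 256-fold dose range (nine 2-fold or five 4-fold steps up to the top dose). Adherent lines were fixed and stained with the nucleic acid dye Syto60, suspension lines read with resazurin; signal relative to control wells, capped at 0 and 100%. One two-parameter sigmoid per drug and line, fitted in a mixed model over all curves with the slope shared within a line.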

Row | Cell Line | AUC | IC50
1 | LB373-MEL-D (melanoma, adherent, top dose 20 µM) | 0.988 | > 20 µM
2 | LB647-SCLC (small cell lung carcinoma, semi-adherent, top dose 20 µM) | 0.964 | > 20 µM
3 | LB771-HNC (head and neck, adherent, top dose 20 µM) | 0.979 | > 20 µM
4 | LB831-BLC (bladder, adherent, top dose 20 µM) | 0.987 | > 20 µM
5 | LB996-RCC (kidney, adherent, top dose 20 µM) | 0.98 | > 20 µM
6 | LB1047-RCC (kidney, adherent, top dose 20 µM) | 0.975 | > 20 µM
7 | LB2241-RCC (kidney, adherent, top dose 20 µM) | 0.984 | > 20 µM
8 | LB2518-MEL (melanoma, adherent, top dose 20 µM) | 0.971 | > 20 µM
9 | LC4-1 (lymphoblastic leukaemia, suspension, top dose 20 µM) | 0.931 | > 20 µM
10 | LC-1-sq (lung squamous cell carcinoma, adherent, top dose 20 µM) | 0.962 | > 20 µM
11 | LC-2-ad (lung adenocarcinoma, adherent, top dose 20 µM) | 0.968 | > 20 µM
12 | LCLC-97TM1 (large cell lung carcinoma, adherent, top dose 20 µM) | 0.908 | > 20 µM
13 | LCLC-103H (large cell lung carcinoma, adherent, top dose 20 µM) | 0.98 | > 20 µM
14 | LK-2 (lung squamous cell carcinoma, adherent, top dose 20 µM) | 0.989 | > 20 µM
15 | LN-18 (glioma, adherent, top dose 20 µM) | 0.993 | > 20 µM
16 | LN-229 (glioma, adherent, top dose 20 µM) | 0.98 | > 20 µM
17 | LN-405 (glioma, adherent, top dose 20 µM) | 0.98 | > 20 µM
18 | LNZTA3WT4 (glioma, adherent, top dose 20 µM) | 0.987 | > 20 µM
19 | LOU-NH91 (lung squamous cell carcinoma, adherent, top dose 20 µM) | 0.984 | > 20 µM
20 | LOUCY (T-cell lymphoblastic leukaemia, suspension, top dose 20 µM) | 0.923 | > 20 µM

Row | Cell Line | AUC | IC50
21 | LOXIMVI (melanoma, semi-adherent, top dose 20 µM) | 0.987 | > 20 µM
22 | LP-1 (myeloma, suspension, top dose 20 µM) | 0.992 | > 20 µM
23 | LS-123 (large intestine, adherent, top dose 20 µM) | 0.979 | > 20 µM
24 | LS-180 (large intestine, adherent, top dose 20 µM) | 0.985 | > 20 µM
25 | LS-411N (large intestine, adherent, top dose 20 µM) | 0.973 | > 20 µM
26 | LS-513 (large intestine, adherent, top dose 20 µM) | 0.921 | > 20 µM
27 | LS-1034 (large intestine, adherent, top dose 20 µM) | 0.966 | > 20 µM
28 | LU-65 (large cell lung carcinoma, suspension, top dose 20 µM) | 0.95 | > 20 µM
29 | LU-99A (large cell lung carcinoma, adherent, top dose 20 µM) | 0.979 | > 20 µM
30 | LU-134-A (small cell lung carcinoma, suspension, top dose 20 µM) | 0.978 | > 20 µM
31 | LU-139 (small cell lung carcinoma, suspension, top dose 20 µM) | 0.944 | > 20 µM
32 | LU-165 (small cell lung carcinoma, suspension, top dose 20 µM) | 0.987 | > 20 µM
33 | LXF-289 (lung adenocarcinoma, adherent, top dose 20 µM) | 0.976 | > 20 µM
34 | LoVo (large intestine, adherent, top dose 20 µM) | 0.987 | > 20 µM
35 | M14 (melanoma, adherent, top dose 20 µM) | 0.986 | > 20 µM
36 | M059J (glioma, adherent, top dose 20 µM) | 0.978 | > 20 µM
37 | MC116 (B-cell lymphoma, suspension, top dose 20 µM) | 0.999 | > 20 µM
38 | MC-CAR (haematopoietic neoplasm, suspension, top dose 20 µM) | 0.944 | > 20 µM
39 | MC-IXC (neuroblastoma, adherent, top dose 20 µM) | 0.995 | > 20 µM
40 | MCF7 (breast, adherent, top dose 20 µM) | 0.986 | > 20 µM

Row | Cell Line | AUC | IC50
41 | MDA-MB-157 (breast, adherent, top dose 20 µM) | 0.988 | > 20 µM
42 | MDA-MB-175-VII (breast, adherent, top dose 20 µM) | 0.987 | > 20 µM
43 | MDA-MB-231 (breast, adherent, top dose 20 µM) | 0.984 | > 20 µM
44 | MDA-MB-330 (breast, adherent, top dose 20 µM) | 0.979 | > 20 µM
45 | MDA-MB-361 (breast, adherent, top dose 20 µM) | 0.985 | > 20 µM
46 | MDA-MB-415 (breast, adherent, top dose 20 µM) | 0.983 | > 20 µM
47 | MDA-MB-436 (breast, adherent, top dose 20 µM) | 0.983 | > 20 µM
48 | MDA-MB-453 (breast, adherent, top dose 20 µM) | 0.976 | > 20 µM
49 | MDA-MB-468 (breast, adherent, top dose 20 µM) | 0.983 | > 20 µM
50 | MDST8 (large intestine, adherent, top dose 20 µM) | 0.978 | > 20 µM
51 | ME-1 (acute myeloid leukaemia, suspension, top dose 20 µM) | 0.937 | > 20 µM
52 | ME-180 (cervix, adherent, top dose 20 µM) | 0.97 | > 20 µM
53 | MEG-01 (chronic myeloid leukaemia, suspension, top dose 20 µM) | 0.942 | > 20 µM
54 | MEL-JUSO (melanoma, adherent, top dose 20 µM) | 0.944 | > 20 µM
55 | MES-SA (uterus, adherent, top dose 20 µM) | 0.992 | > 20 µM
56 | MFE-280 (endometrium, adherent, top dose 20 µM) | 0.959 | > 20 µM
57 | MFE-319 (endometrium, adherent, top dose 20 µM) | 0.988 | > 20 µM
58 | MFH-ino (soft tissue, adherent, top dose 20 µM) | 0.982 | > 20 µM
59 | MFM-223 (breast, adherent, top dose 20 µM) | 0.989 | > 20 µM
